Results taken from a collection of fitness landscapes (doi:10.1126/science.1257360).
This is one part of the list.

B1: PhoQ; a variant is named by its letters at X, in order, P23837 (parent)
chain: MKKLLRLFFPLSLRVRFLLATAAVVLVLSLAYGMVALIGYSVSFDKTTFRLLRGESNLFYTLAKWENNKLHVELPENIDKQSPTMTLIYDENGQLLWAQRDVPWLMKMIQPDWLKSNGFHEIEADVNDTSLLLSGDHSIQQQLQEVREDDDDAEMTHSVAVNVYPATSRMPKLTIVVVDTIPVELKSSYMVWSWFIYVLSANLLLVIPLLWVAAWWSLRPIEALAKEVRELEEHNRELLNPATTRELTSLVRNLNRLLKSERERYDKYRTTLTDLTHSLKTPLXXLQXXLRSLRSEKMSVSDAEPVMLEQISRISQQIGYYLHRASMRGGTLLSRELHPVAPLLDNLTSALNKVYQRKGVNISLDISPEISFVGEQNDFVEVMGNVLDNACKYCLEFVEISARQTDEHLYIVVEDDGPGIPLSKREVIFDRGQRVDTLRPGQGVGLAVAREITEQYEGKIVAGESMLGGARMEVIFGRQHSAPKDE

Variants of: B1
Test: enrichment ratio after two sorts for PhoP signalling (ratio (wild type AVST 3.29)); higher = more functional
Details: with PhoP (E. coli)

Variant	enrichment ratio
IERW	≤ 0.25
RWVW	≤ 0.25
HHWG	≤ 0.25
TKMS	3.1
DIHK	≤ 0.25
SVQQ	≤ 0.25
KFDS	≤ 0.25
KHDG	≤ 0.25
SYEA	≤ 0.25
FCFG	0.349
EPMN	≤ 0.25
GLRM	≤ 0.25
KHHS	≤ 0.25
MNQG	≤ 0.25
ISEL	≤ 0.25
GNTI	4.8
NSLI	4.88
RVMC	≤ 0.25
TQTA	5.01
KNGY	≤ 0.25
QERP	≤ 0.25
HYRI	≤ 0.25
VIPK	≤ 0.25
YGYP	≤ 0.25
SDNH	≤ 0.25

Variant	enrichment ratio
EEGD	≤ 0.25
LVRL	≤ 0.25
TLEV	1.08
HHGW	≤ 0.25
QMCY	9.66
VTQG	≤ 0.25
PYEY	≤ 0.25
GIYT	≤ 0.25
CSGS	≤ 0.25
QNYI	≤ 0.25
RESN	≤ 0.25
FHHQ	≤ 0.25
IQEM	≤ 0.25
RKAQ	≤ 0.25
REFN	≤ 0.25
LAAW	≤ 0.25
GMMD	≤ 0.25
FKRV	≤ 0.25
SSPS	≤ 0.25
FYVK	≤ 0.25
RLWT	≤ 0.25
MNGM	7.79
LYIY	≤ 0.25
DIAG	≤ 0.25
IPWP	≤ 0.25

Variant	enrichment ratio
MDKS	≤ 0.25
ARSM	4.49
VTGQ	≤ 0.25
YEKD	≤ 0.25
DVPC	≤ 0.25
SLFL	≤ 0.25
ANEN	≤ 0.25
DMNH	≤ 0.25
YMGA	≤ 0.25
YKTW	≤ 0.25
FPGG	≤ 0.25
PTGD	≤ 0.25
WSIS	≤ 0.25
IRDK	≤ 0.25
DPAG	≤ 0.25
SMFL	≤ 0.25
SAHW	≤ 0.25
RADF	≤ 0.25
SKAL	12.2
EHLG	≤ 0.25
LQCM	≤ 0.25
HCCW	≤ 0.25
PSKM	≤ 0.25
KIMR	≤ 0.25
GRTK	≤ 0.25

Variant	enrichment ratio
HYIN	≤ 0.25
YRIQ	≤ 0.25
LVAS	≤ 0.25
HPTE	≤ 0.25
PINN	≤ 0.25
DDTH	≤ 0.25
YLCK	≤ 0.25
NQIT	≤ 0.25
YEIK	≤ 0.25
WPKC	≤ 0.25
SYPK	≤ 0.25
WDGL	≤ 0.25
FSHL	≤ 0.25
FTDP	≤ 0.25
TTTK	16.7
CTGL	≤ 0.25
GPSG	≤ 0.25
KAHW	≤ 0.25
RVQT	≤ 0.25
NKKS	≤ 0.25
HLAI	≤ 0.25
TFNW	≤ 0.25
FAEE	≤ 0.25
DNSH	≤ 0.25
GPAK	≤ 0.25

Variant	enrichment ratio
LIEW	≤ 0.25
LWSF	≤ 0.25
NCLP	≤ 0.25
AHPR	≤ 0.25
HKRR	≤ 0.25
RGQS	≤ 0.25
RTDI	≤ 0.25
STAS	7.84
NSAF	≤ 0.25
SWGC	≤ 0.25
WNWM	≤ 0.25
TGCL	22.4
NSKG	≤ 0.25
DCKA	≤ 0.25
QQES	≤ 0.25
SYQQ	≤ 0.25
MICI	0.945
LRTY	≤ 0.25
SNIA	≤ 0.25
MGGQ	2.83
IAGR	≤ 0.25
DDEW	≤ 0.25
MRFF	≤ 0.25
YDAK	≤ 0.25
AKCT	9.01

Variant	enrichment ratio
MARI	≤ 0.25
HSMV	17
GLRF	≤ 0.25
MYMN	≤ 0.25
SDQH	≤ 0.25
CSGV	5.64
PPFV	≤ 0.25
IMIW	≤ 0.25
MVCY	≤ 0.25
SQVP	≤ 0.25
LCPD	≤ 0.25
QYRP	≤ 0.25
VQKI	≤ 0.25
GTNH	≤ 0.25
MLGN	≤ 0.25
ACNH	≤ 0.25
IHCY	≤ 0.25
IAEW	≤ 0.25
NRHM	≤ 0.25
SWKW	≤ 0.25
FFDD	≤ 0.25
EQDP	≤ 0.25
RVHG	≤ 0.25
QIPL	≤ 0.25
MCSG	4.26

Variant	enrichment ratio
TACP	≤ 0.25
ADAD	≤ 0.25
GSSV	6.59
KVFF	≤ 0.25
FGTQ	≤ 0.25
MVQK	≤ 0.25
TELH	11.2
DYGL	≤ 0.25
SPLH	≤ 0.25
PKES	≤ 0.25
GWAK	≤ 0.25
PDLD	≤ 0.25
QIIL	2.31
HTTK	≤ 0.25
KTPI	≤ 0.25
WFIC	≤ 0.25
ENSP	≤ 0.25
RNRV	≤ 0.25
FVIQ	≤ 0.25
FLPM	≤ 0.25
ILKD	≤ 0.25
MSGP	≤ 0.25
APTN	≤ 0.25
YQWN	≤ 0.25
RPTP	≤ 0.25

Variant	enrichment ratio
MLVR	≤ 0.25
LPTG	≤ 0.25
VYEW	≤ 0.25
CQRF	≤ 0.25
NDWA	≤ 0.25
VMFD	≤ 0.25
YANL	≤ 0.25
NVCF	≤ 0.25
HRND	≤ 0.25
VAMK	≤ 0.25
EARE	≤ 0.25
RMFN	≤ 0.25
FRNQ	≤ 0.25
YPTK	≤ 0.25
YPDG	≤ 0.25
PYQM	≤ 0.25
SWTD	≤ 0.25
LRDR	≤ 0.25
EDRV	≤ 0.25
LRRW	≤ 0.25
